The campaign covered roughly 43,000 compounds. About 200 (0.47%) were called active. Not shown: some 12% with an inconclusive outcome. Calls follow the shape of the dose curve; as a rule, active = well fitted cell-killing curve with a large enough effect; inconclusive = small, poorly fitted or top-dose-only effect, or effect the other way; inactive = flat fitted curve, though single readings scatter. This is one part of the list.
% is scaled to controls: 0 for no effect and ±100 for the full control effect.

This assay in a line: Cell viability qHTS assay in S16 Pmp22-F2sN cells. Also: nearly all actives have a fitted effect of over 65% in size. The following applies: S16 Pmp22-F2sN Schwann cells (luciferase reporters placed in the Pmp22 gene) viability, CellTiter-Glo, 24 h; series mostly up to 57.5 µM; activity change, negative = cytotoxicity: at the top concentration. The source says:
Assay Provider: Jim Inglese Ph.D. National Center for Advancing Translational Science, National Institutes of Health, Rockville, MD CMT is a heterogeneous group of neurological disorders that affect approximately 1 in 2,500 people. In particular, the most common form of CMT, CMT1A is genetically linked to the duplication of the PMP22 gene which leads to Schwann cell overexpression, thus manifesting itself as a typical case of dose-sensitive diseases. To identify small molecule compounds that can mediate the expression of PMP22 we developed a phenotypic assay screening strategy by utilizing genome editing techniques to construct Schwann cell lines containing novel reporter technology to monitor the transcriptional or translational regulation of PMP22. For high sensitivity we use a bioluminescent reporter system embedded in the 3' UTR of the PMP22 gene (S16(c9) Pmp22-F2sN) to identify compounds that inhibit gene expression. […] We can further discriminate the effect of all transcriptionally active molecules on PMP22 translation or stability with an assay that incorporates a short NLuc peptide (HiBiT) at the C-terminus of expressed PMP22 (S16(f8) PMP22-HiBiT) allowing alpha complementation and luminescence detection of membrane-associated PMP22 protein. These assays were screened against the NCATS Sytravon Library Collection. Miniaturization of these assays to 1536-well plate format for quantitative high throughput screening (qHTS) yielded rich data sets immediately from the qHTS assay (S16(c9) Pmp22-F2sN), when compared with data from a cell viability assay (Cell TiterGlo) to identify compounds that decreased the output signals through cellular toxicity to streamline the selection process of actives for subsequent characterization using the HiBiT assay (S16(f8) PMP22-HiBiT).
Cell viability assay in S16 Pmp22-F2sN cells PROTOCOL TABLE (format as described by Inglese J, Shamu CE and Guy RK. 2007) SEQUENCE No. (e.g., 1, 2, 3, etc.); […] (e.g., Cells, Incubation, Reagent, etc.); VALUE and DESCRIPTION. 1. Cells. Add 500-1,000 cells in 4 uL in growth media (DMEM High Glucose, No Phenol Red media + 10% heat-inactivated FBS + 1% Pen/Strep supplemented media) per well into Greiner 1536-well white/solid bottom high base, TC-treated plates. 2. Compounds. Library compounds and controls added at 23nL per well, transferred by Pin Tool. 3. Incubation. Incubate plates at 37C, 5% CO2, 95% RH for 24 h. 4. Reagent. Add 3uL CellTiter-Glo per well of Greiner 1536-well plates. 5. Incubation. Incubate plates at room temperature for 15 min., protect from light. 6. Detector. FLuc luminescence measured using CCD-based camera (Viewlux). NOTES (numbers refer to Sequence numbers above; values are from representative experiments) 6. Luminescence Read: Clear filter; Exposure = 1 sec, Gain = High, Speed = Slow, Binning = 2X REFERENCES: 1. Inglese J, Shamu CE and Guy RK, Reporting data from high throughput screening of small molecule libraries, Nature Chemical Biology, 2007, 3(8): 438-441. doi.org/10.1038/nchembio0807-438 2. Yasgar A, Shinn P, Jadhav A, Auld DS, Michael S, Zheng W, Austin CP, Inglese J and Simeonov A, Compound Management for Quantitative High-Throughput Screening. J. Assoc. Lab. Auto., 2008, 13: 79-89. doi: 10.1016/j.jala.2007.12.004
With `COc1ccc2c(c1)-c1nc(NC(=O)c3ccc(OC)c(Br)c3)sc1CC2`, the “activity change, negative = cytotoxicity” value was inactive: -18.7%.

For the molecule `Cc1cccc(-c2noc(CN(C3CCCCC3)S(=O)(=O)c3ccc(F)cc3)n2)c1`, the “activity change, negative = cytotoxicity” value is inactive: 2.31%.

With `COc1ccc(CNC(=O)CN(c2ccc(C(C)C)cc2)S(=O)(=O)c2c(C)nn(C)c2C)cc1`, the “activity change, negative = cytotoxicity” value is inactive: 0.611%.

As to `COc1ccc(NC(=O)CSc2nc3ccccc3nc2N2CCC(C)CC2)cc1`, the “activity change, negative = cytotoxicity” value was inactive: 6.76%.

For `COc1cc(/C=C/c2nc(C#N)c(N3CCCCC3)o2)cc(OC)c1OC`, the “activity change, negative = cytotoxicity” value was inactive: -7%.

Turning to `CC1=C(C(=O)NCc2cccc(Br)c2)C2(CCCCC2)OC1=O`, the “activity change, negative = cytotoxicity” value was inactive: 1.2%.

In the case of `CCCCOC(=O)/C(C#N)=C/c1ccc(-c2cccc(C(F)(F)F)c2)o1`, the “activity change, negative = cytotoxicity” value is inactive: 7.89%.

Turning to `CCOc1ccc(-c2nonc2NC(=O)c2ccco2)cc1`, the “activity change, negative = cytotoxicity” value is inactive: 7.31%.

Turning to `CCOc1ccc(NC(=O)CSc2nc3c(oc4ccccc43)c(=O)n2-c2cc(C)cc(C)c2)cc1`, the “activity change, negative = cytotoxicity” value was inactive: 13.9%.

With `Cc1ccc(C(=O)Nc2c(-c3ccccc3)nc3ccccn23)cc1`, the “activity change, negative = cytotoxicity” value is inactive: -10.1%.

Take `Cc1ccc(C2c3[nH]c4ccccc4c3CCN2C(=O)c2ccccc2Br)cc1` (configuration not stated): the “activity change, negative = cytotoxicity” value was inactive: 11%.

`CCCN(CCC)C(=O)Cn1c(=O)n(-c2ccc(C)c(C)c2)c(=O)c2c3c(sc21)CCCCC3`: the “activity change, negative = cytotoxicity” value was inactive: -4.57%.

As for `CC1CCC(NC(=O)CCc2cn(Cc3ccccc3Cl)c3ccccc23)CC1` (configuration not stated), the “activity change, negative = cytotoxicity” value is inactive: -11.4%.

On to `Cc1nn(-c2ccc(F)cc2)c(-n2cccc2)c1C(=O)N1CCN(c2ccccc2)CC1`, for which the “activity change, negative = cytotoxicity” value was inactive: 8.16%.

With `Cc1cc2nn(-c3ccccc3)nc2cc1NC(=O)COc1ccc(Cl)cc1`, the “activity change, negative = cytotoxicity” value was inactive: -3.17%.

With `CCOc1ccc(Cn2nnc(C(=O)Nc3cccc(SC)c3)c2N)cc1`, the “activity change, negative = cytotoxicity” value is inactive: -0.235%.

On to `Cc1ccc(NC(=O)CSc2nnc(-c3cc4occc4n3C)n2-c2ccccc2C)c(Cl)c1`, for which the “activity change, negative = cytotoxicity” value was inactive: 9.85%.

With `Cc1ccc(C)c(Cn2c3ccccc3c3cnn(CC(=O)NC4CCC(C)CC4)c(=O)c32)c1` (configuration not stated), the “activity change, negative = cytotoxicity” value was inactive: 6.7%.

Consider `O=C(NCCc1ccccc1)C1CCN(c2ncnc3c2nc2n3CCCCC2)CC1`, for which the “activity change, negative = cytotoxicity” value was inactive: 7.7%.

With `COc1ccc(NC(=O)CSC2=Nc3ccccc3C3=NC(CCC(=O)NCc4cccs4)C(=O)N23)cc1` (configuration not stated), the “activity change, negative = cytotoxicity” value is inactive: -2.71%.

`Cc1ncc(CO)c2c1Oc1nc(-c3ccc(F)cc3)nc(SCC(=O)N3CCCCC3)c1C2`: the “activity change, negative = cytotoxicity” value is inactive: -13.8%.

On to `Cc1ccc(CN2C(=O)N(c3ccc(F)cc3)C(=O)C2CC(=O)Nc2ccc(Cl)cc2)cc1` (configuration not stated), for which the “activity change, negative = cytotoxicity” value was inactive: 3.17%.

`COc1ccc(CCCc2nnc(SCC(=O)Nc3cc(C)ccc3C)o2)cc1`: the “activity change, negative = cytotoxicity” value was inactive: -2.3%.

As for `COC(=O)c1ccccc1NC(=O)c1ccc(COc2cc(C)cc(C)c2)o1`, the “activity change, negative = cytotoxicity” value was inactive: 15.3%.

Take `CC(=O)Nc1ccc(-n2c(CCC(=O)O)ccc2-c2ccc(Br)cc2)cc1`: the “activity change, negative = cytotoxicity” value is inactive: 1.48%.

Take `COc1ccc(CNC(=O)Cc2c(C)c3c(cc(C)c4c(C)coc43)oc2=O)cc1OC`: the “activity change, negative = cytotoxicity” value is inactive: 19.8%.

As for `COc1ccc(Cl)cc1NC(=O)Cn1c(=O)n(Cc2cccs2)c(=O)c2cccnc21`, the “activity change, negative = cytotoxicity” value was inactive: -13.5%.

In the case of `CCOC(=O)c1cc(-c2ccc(C)cc2)n(CC(=O)Nc2ccccc2F)c1C`, the “activity change, negative = cytotoxicity” value was inactive: 6.52%.

Regarding `Cc1nn(CC(=O)NCc2ccc(N(C)C)cc2)c(=O)c2c(C)n(-c3ccc(Cl)cc3)nc12`, the “activity change, negative = cytotoxicity” value is inactive: -22.7%.

On to `CCOc1ccc(NC(=O)CCn2c(=O)c3cccn3c3cccnc32)cc1`, for which the “activity change, negative = cytotoxicity” value was inactive: 18%.

Consider `Cc1nc2ccc(S(=O)(=O)N(CC(=O)Nc3cccc(Cl)c3)Cc3ccccc3)cc2s1`, for which the “activity change, negative = cytotoxicity” value is inactive: -24.2%.

Turning to `CCn1c(=O)n(-c2ccc(F)cc2)c(=O)c2sc3ccccc3c21`, the “activity change, negative = cytotoxicity” value is inactive: 1.31%.

As to `CC(C)(C)OC(=O)N1CCC(c2c(C(=O)N3CCN(c4ccccc4)CC3)cnn2-c2ccccc2)CC1`, the “activity change, negative = cytotoxicity” value is inactive: 5.71%.

`CCOC(=O)c1c(Nc2ccc(F)cc2)nnc(-c2ccccc2)c1-c1ccccc1`: the “activity change, negative = cytotoxicity” value is inactive: -19.8%.

On to `COc1ccc(CCNC(=O)c2ccc3c(c2)N(Cc2cc(C)ccc2C)C(=O)c2ccccc2S3=O)cc1OC` (configuration not stated), for which the “activity change, negative = cytotoxicity” value is inactive: 10.8%.

`COc1ccc(-c2nc(SCC(=O)N3CCN(c4ccc(F)cc4)CC3)n[nH]2)cc1`: the “activity change, negative = cytotoxicity” value is inactive: 5.03%.

With `CCCCOc1ccc(CNC(=O)Cc2ccc(NC(=O)N3CCCCc4ccccc43)cc2)cc1`, the “activity change, negative = cytotoxicity” value was inactive: -1.32%.

Take `CC(=O)N1CCC2(CC1)OC(=O)C(C)=C2C(=O)Nc1cc(C)ccc1C`: the “activity change, negative = cytotoxicity” value was inactive: 3.29%.

As for `CCCN(C(=O)c1cc2ccc3cccnc3c2[nH]1)c1ccc(F)cc1`, the “activity change, negative = cytotoxicity” value was inactive: 2.15%.

On to `Cc1cc(Br)ccc1NC(=O)Cn1cnc2sc(C)c(S(=O)(=O)N3CCN(C)CC3)c2c1=O`, for which the “activity change, negative = cytotoxicity” value was inactive: 1.23%.

Take `COC(=O)c1sc2cccc(F)c2c1S(=O)(=O)Nc1ccc(N(C)C)cc1`: the “activity change, negative = cytotoxicity” value is inactive: 3.73%.

Take `COc1ccc(C)cc1NC(=O)Cn1c(=O)cc(C)c2c(C)nn(C)c21`: the “activity change, negative = cytotoxicity” value is inactive: -13.1%.

On to `Cc1nc(-c2ccc(Cl)cc2)sc1CCNC(=O)Cc1ccc(F)cc1`, for which the “activity change, negative = cytotoxicity” value is inactive: -4.93%.

On to `O=S(=O)(c1ccccc1)c1nc(-c2ccc(Cl)cc2Cl)oc1N1CCCCC1`, for which the “activity change, negative = cytotoxicity” value was inactive: 10.7%.

Consider `CCN(CC)CCCNC(=O)c1cn(CC)c2ccc(S(=O)(=O)N3CCc4ccccc4C3)cc2c1=O`, for which the “activity change, negative = cytotoxicity” value is inactive: -0.216%.

For `Cc1ccc(C(=O)Nc2cccc(O)c2)cc1S(=O)(=O)N1CCCCCC1`, the “activity change, negative = cytotoxicity” value is inactive: 1.76%.

For `CCCCSCCCNC(=O)c1cn(C)c2ccc(S(=O)(=O)N3CCCCC3)cc2c1=O`, the “activity change, negative = cytotoxicity” value is inactive: -2.94%.

The values are drawn from PubChem BioAssay AID1508642 (National Center for Advancing Translational Sciences (NCATS), 2021).
